From the supplement of paper PMC3334620
Whole data set: some 33,000 sequences, median “E-score (-0.5 to 0.5)” near -0.035, cut for the highest 2% near 0.34. This is one part of the list.

Biological target: T1, Mot3 (UniProt P54785)
T1 sequence: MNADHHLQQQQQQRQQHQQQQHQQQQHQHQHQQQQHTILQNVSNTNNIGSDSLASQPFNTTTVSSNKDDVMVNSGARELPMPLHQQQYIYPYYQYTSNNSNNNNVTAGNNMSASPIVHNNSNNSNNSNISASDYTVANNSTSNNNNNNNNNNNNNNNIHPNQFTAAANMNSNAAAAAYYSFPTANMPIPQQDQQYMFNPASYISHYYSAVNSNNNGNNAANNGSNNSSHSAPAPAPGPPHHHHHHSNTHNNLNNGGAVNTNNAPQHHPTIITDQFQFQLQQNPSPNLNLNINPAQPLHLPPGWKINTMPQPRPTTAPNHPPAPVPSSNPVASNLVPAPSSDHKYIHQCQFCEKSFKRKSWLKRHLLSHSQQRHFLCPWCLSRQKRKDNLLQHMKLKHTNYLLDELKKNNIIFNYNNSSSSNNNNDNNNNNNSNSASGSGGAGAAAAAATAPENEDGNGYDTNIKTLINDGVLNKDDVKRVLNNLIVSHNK
Experiment: PBM E-score (8-mer binding enrichment) (E-score (-0.5 to 0.5)); higher = stronger / more preferred TF binding; most listed sequences are background and not binding sites
Settings: protein concentration: 200 nM; construct: GST-full length
Outline: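 Bound GST-tagged yeast transcription factors, applied at about 100-200 nM to double-stranded universal all-10-mer Agilent arrays, were detected with fluorescent anti-GST. Scans were normalised with masliner. A modified Wilcoxon-Mann-Whitney statistic, the E-score, was assigned to each ungapped eight-base word pooled with its reverse complement by the Universal PBM Analysis Suite.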

| Sequence | PBM E-score |
| --- | --- |
| ACTTGAAA | -0.0285 |
| ACCGATGA | -0.0168 |
| ATACAACC | 0.262 |
| CGACTAAC | 0.088 |
| GAACCCCA | -0.0338 |
| CCTAGCTA | -0.0896 |
| CCTACCAG | -0.023 |
| GCATACTA | -0.0476 |
| TGAAATCA | 0.0139 |
| CCGGGTCA | -0.346 |
| CAGAAAGA | -0.106 |
| CACATTTA | 0.143 |
| AGATTCTA | 0.011 |
| GCGTCTAC | -0.0217 |
| ACCCGTAT | -0.00316 |
| GCAAGGAA | 0.211 |
| AGGCTTAG | 0.0248 |
| AATTAAAC | 0.205 |
| CAAAGTAC | 0.129 |
| CACGAATA | 0.155 |
| GACCCAGC | -0.167 |
| CTTATTGA | -0.125 |
| CTATCCGC | -0.0368 |
| ACCACTTA | 0.0505 |
| GCAGGAGA | -0.149 |

| Sequence | PBM E-score |
| --- | --- |
| CAGGTCGG | -0.196 |
| AGCGGGCG | -0.108 |
| CAGCCATC | -0.103 |
| ATACTACG | 0.0591 |
| AACATTAC | 0.338 |
| ACCGATAT | -0.09 |
| CGAAACCA | -0.0235 |
| CATCAATA | 0.101 |
| ACGCCGAA | -0.273 |
| ACAAACGC | 0.168 |
| CGAACCCG | -0.223 |
| CAATAGGA | 0.114 |
| AAGCTTAT | -0.0472 |
| ACTACCAT | 0.0224 |
| ACTAGGGA | -0.02 |
| TAGTAATA | 0.182 |
| AGATGGGC | -0.217 |
| CTCGGTAA | -0.0294 |
| AGATATCT | -0.011 |
| AAGAGACT | -0.214 |
| CCATTCGG | 0.0904 |
| AACAACAC | 0.349 |
| AAAACTAA | 0.248 |
| ATGGTGAA | -0.098 |
| GCATTCCA | -0.203 |

| Sequence | PBM E-score |
| --- | --- |
| ATGAATCC | -0.0433 |
| CTGATGCA | 0.113 |
| GATCCGGC | -0.31 |
| AAACTATT | -0.0299 |
| CAGCCGAA | -0.158 |
| CACGGGAG | -0.0313 |
| ACGGGCCT | -0.0518 |
| CGCCGGTA | -0.247 |
| AATATCGA | -0.0885 |
| GTTAAGTA | 0.229 |
| CTCATATA | -0.0207 |
| CGCATCCC | -0.00798 |
| AGCGCAGA | -0.107 |
| CGTACGTA | 0.193 |
| CGCGAAAC | -0.126 |
| ATCTAGGA | -0.0161 |
| ACAAGCGT | 0.0882 |
| AATAAGGT | 0.0275 |
| ATGATAAG | 0.253 |
| CGTCCTGC | -0.0337 |
| CGATGACC | -0.0584 |
| ACAGCGAT | -0.118 |
| TATACGCA | 0.272 |
| CCACTCGG | -0.285 |
| AGTCGCGC | -0.131 |

| Sequence | PBM E-score |
| --- | --- |
| CCGATGAC | -0.105 |
| ATCTTTAG | 0.0723 |
| CATGTTGC | 0.297 |
| CCAGTGCG | -0.239 |
| ATTCCGCC | -0.038 |
| CAAACAGA | -0.118 |
| ACCAATTC | 0.0335 |
| CGGCTCCA | -0.164 |
| AGAGCGTC | -0.00811 |
| GGCAGCTA | -0.0165 |
| GTGCATCA | -0.00927 |
| AGGTCAAT | -0.0391 |
| ACGACCAT | -0.286 |
| CCACGGTC | -0.385 |
| ATTCAGGC | 0.246 |
| CCAACCCA | -0.166 |
| CGGATCGA | -0.229 |
| ACACGGTG | 0.335 |
| GGCGCTAC | -0.146 |
| AAAGGCGA | 0.115 |
| CGCCGACA | 0.0113 |
| CACGCCGC | 0.0517 |
| AGCGTGTC | 0.205 |
| TATCTGGA | -0.175 |
| ACTTCTAC | 0.226 |

| Sequence | PBM E-score |
| --- | --- |
| GGTTGAGA | -0.0699 |
| ACTGTACA | 0.217 |
| TAAAAAAA | 0.179 |
| ACGGCTTG | -0.0945 |
| CGGTGTGC | -0.166 |
| ATTCCTAG | -0.0454 |
| CGGACCCA | -0.214 |
| CAGAACTG | 0.0185 |
| AATATTCT | -0.122 |
| AGCGGTAT | 0.106 |
| CTATATAA | 0.085 |
| CAGCCAAC | -0.0943 |
| AAGGCAGG | 0.231 |
| AACGTGAG | -0.00234 |
| GCAGATCA | -0.0142 |
| CCTCTACG | 0.0101 |
| ACTGACCA | -0.17 |
| ATGGCGGC | -0.244 |
| TAATCAAA | 0.0852 |
| GCAATTAC | 0.149 |
| AAACCTAT | 0.0655 |
| CAATAAGG | 0.08 |
| CAAGTGCA | 0.113 |
| ATCGTATA | 0.154 |
| AATTACAC | 0.402 |

| Sequence | PBM E-score |
| --- | --- |
| ATTATAGG | 0.136 |
| AAACCAAC | -0.0131 |
| ACACCAAT | 0.0322 |
| TCCTGACA | 0.119 |
| CTATATGA | 0.0308 |
| CCTCCGGC | -0.31 |
| ACCAGGAT | -0.105 |
| GGGTATAC | 0.0475 |
| CACCTTCG | -0.0632 |
| CGAATTAG | 0.0261 |
| GCGGACTA | -0.0278 |
| CTACTTCA | -0.126 |
| CGCACCAC | -0.17 |
| ATAAGTGG | -0.135 |
| AACGTGCG | 0.0588 |
| TCGCTGAA | -0.0378 |
| GGGCGGTA | -0.29 |
| AGGCGGAA | 0.101 |
| TCGCACAA | -0.0537 |
| AGGCAACA | 0.482 |
| ATACATTG | 0.173 |
| ATGTAGGC | 0.361 |
| ACTAAAGA | 0.0266 |
| CAGTTTTA | 0.0825 |
| ACCCTAGA | 0.00157 |

| Sequence | PBM E-score |
| --- | --- |
| CTACCAAC | 0.134 |
| CTTACCGC | -0.061 |
| AGACGCAG | -0.0464 |
| GGACCGCA | -0.223 |
| ACTCAACA | 0.287 |
| CGTGAGGA | -0.178 |
| GACGCTGC | -0.0452 |
| GCCAATGA | -0.225 |
| AGTTACCC | -0.036 |
| AGAATTTC | -0.145 |
| ATCCGGTA | -0.0352 |
| ATCCGGAT | -0.0809 |
| ATGTCCAG | -0.195 |
| AGAGATGC | 0.00117 |
| CCAAAGGA | 5e-05 |
| ACATCAAA | 0.109 |
| ATTTGAAA | 0.0527 |
| ACAACCCT | 0.0664 |
| ACCGTACG | -0.116 |
| GGATCGAC | -0.145 |
| CTTCAAAG | -0.106 |
| ATCAGGAT | -0.12 |
| CAGTCCAC | -0.0523 |
| CCAGGTAG | -0.141 |
| CGACGTAG | -0.113 |

| Sequence | PBM E-score |
| --- | --- |
| CAATTCGA | 0.0209 |
| GCTTATCC | -0.179 |
| ATGTACAG | 0.247 |
| CAATCCTC | -0.147 |
| CGGCCATC | -0.292 |
| ACGAATCA | 0.0682 |
| AATATGCT | -0.0891 |
| AGTGGGGG | -0.307 |
| AGAAGTTG | -0.131 |
| ATGGAGCC | 0.023 |
| TAATGTGA | 0.117 |
| GGCAGAGA | -0.0955 |
| CCAGCTTA | -0.0333 |
| AATATAAG | 0.117 |
| AACCTGAT | 0.00552 |
| AATACTGT | 0.0593 |
| CACCGGCG | -0.0729 |
| AACTGCAT | 0.0343 |
| TGACGCAA | -0.00663 |
| AGATATTG | -0.093 |
| AACTCCTA | 0.0209 |
| CCGTTTGC | -0.122 |
| GAGGACTC | -0.168 |
| CTGTGGAC | -0.203 |
| CCCCGGGC | -0.283 |

| Sequence | PBM E-score |
| --- | --- |
| GTAGTTCA | 0.0323 |
| CAAGGCAC | 0.488 |
| AAGCACTG | -0.0039 |
| GTACCTGA | 0.402 |
| TATAAGCA | 0.0177 |
| ATCGGGCG | -0.16 |
| CGATGAGC | -0.178 |
| AATAGTAC | 0.137 |
| ATGCGCAT | 0.293 |
| AAGGTGGC | -0.095 |
| CTATGAAG | -0.0173 |
| GCGTGAAC | 0.0165 |
| CGTACGAG | -0.148 |
| CGTTTGAA | -0.0507 |
| ACTCTATC | -0.0435 |
| GGTGCTTA | -0.0994 |
| ATACGTTC | 0.0323 |
| CAAATCGA | 0.0103 |
| GATACGAA | 0.0707 |
